Test results as given in PubChem BioAssay AID624173 (National Center for Advancing Translational Sciences (NCATS), 2012).
The whole screen tested about 410,000 compounds, of which about 490 (0.12%) were called active. This list was built around the results that the source calls inconclusive (neither active nor inactive); the mix of calls is not that of the screen. Calls come from the whole dose curve; as a rule, active = well fitted inhibition curve with a large enough effect; inconclusive = small, poorly fitted or top-dose-only effect; inactive = flat fitted curve, though single readings scatter. A potency beside an inconclusive call is a rough fit, not a confirmed value.

Target: pyruvate kinase (Trypanosoma brucei) (UniProt Q57TT1)
Assay: qHTS of Trypanosoma Brucei Inhibitors; note: nearly all actives have a fitted effect of over 50% in size
Details: TbPYK enzyme, Kinase-Glo Plus ATP luminescence, 45 min; series mostly up to 76.8 µM
Outline: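 Luminescent Kinase-Glo Plus end-point after 45 min room-temperature reaction of T. brucei pyruvate kinase started with 130 uM ADP (final). Buffer TEA 50 mM pH 7.2 with KCl, MgCl2, BSA, Tween-20; titration-based qHTS with fitted concentration-effect curves.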
Potency is the fitted concentration of half-maximal effect; tags give direction and shape of the fitted curve.

Row | SMILES | Potency
1 | Cc1cc(C)c2c(c1)[C@@H]1C=CC[C@@H]1[C@H](c1ccc(S(=O)(=O)N3CCOCC3)cc1)N2 | inconclusive: 7.08 µM [inhibitor, partial curve, poor fit]
2 | O=C(NCC(c1ccc2c(c1)OCO2)N1CCOCC1)c1ccc(F)cc1 (configuration not stated) | inactive
3 | COc1ccc2nc(N=Nc3ccc(N(C)C)cc3)sc2c1 | inactive
4 | CC(CCc1ccccc1)NC(=O)CN1CCN(c2ccc(O)cc2)CC1 (configuration not stated) | inconclusive: 35.5 µM [inhibitor, single point]
5 | O=C(CSc1nnc(C2CC2)n1-c1ccccc1)NCCc1ccc(F)cc1 | inconclusive: 50.1 µM [inhibitor, single point]
6 | Cc1ccc(NC(=O)CN2C(=O)C(C)(C)c3cc(S(=O)(=O)N4CCCCC4)ccc32)c(Br)c1 | inconclusive: 39.8 µM [inhibitor, single point]
7 | COc1cc(C(=O)O)cc(OC)c1OC | inactive
8 | Cc1noc(C)c1CSc1nnc(-c2ccccc2F)n1CCc1ccccc1 | inconclusive: 17.8 µM [inhibitor, partial curve]
9 | S=c1[nH]c2ccccc2s1 | inconclusive: 39.8 µM [inhibitor, partial curve, poor fit]
10 | O=C(NCCc1ccccc1)c1ccc2nc(-c3ccco3)c(-c3ccco3)nc2c1 | inconclusive: 25.1 µM [inhibitor, single point]
11 | N/C(=N/OC(=O)c1ccccc1Cl)c1nonc1N | inconclusive: 20 µM [inhibitor, partial curve, poor fit]
12 | COc1ccc(Cc2nc3ccc(C(=O)NCCc4ccc(Cl)cc4)cc3o2)cc1 | inactive
13 | CC(C)(C)c1cc(C(=S)N2CCN(CCO)CC2)cc(C(C)(C)C)c1O | inconclusive: 25.1 µM [inhibitor, partial curve]
14 | Cc1cccc(OCCNc2ccc(C(F)(F)F)cc2[N+](=O)[O-])c1 | inactive
15 | O=c1c2c3c(sc2n2c(=S)[nH]nc2n1-c1ccccc1)CCC3 | inconclusive: 6.31 µM [inhibitor, partial curve, poor fit]
16 | O=C(Nc1ccc([N+](=O)[O-])cc1)C(=O)Nc1cccc(C(=O)O)c1 | inconclusive: 35.5 µM [inhibitor, partial curve, poor fit]
17 | Cn1cccc1/C=N/n1c(-c2ccccc2)n[nH]c1=S | inconclusive: 2.51 µM [inhibitor, full curve, poor fit]
18 | Cc1ccc(-c2cc(C(=O)N3CCN(c4ccc(O)cc4)CC3)c3ccccc3n2)cc1 | inconclusive: 10 µM [inhibitor, partial curve]
19 | c1ccc(CCc2nc3ccccc3[nH]2)cc1 | inactive
20 | O=[N+]([O-])c1cccc(-c2ccc(C(=S)N3CCOCC3)o2)c1 | inactive
21 | Cc1nc2ccccc2nc1OCC(=O)NCc1ccc2c(c1)OCO2 | inconclusive: 28.2 µM [inhibitor, partial curve]

Row | SMILES | Potency
22 | CCc1[nH]c(=S)c(C#N)c2c1CCCC2 | active: 15.8 µM
23 | CC1(C)CC(=O)C(C(C2=C(O)CC(C)(C)CC2=O)c2ccco2)C(=O)C1 (configuration not stated) | inconclusive: 22.4 µM [inhibitor, partial curve, poor fit]
24 | O=C(N/N=C/c1ccccc1Cl)c1n[nH]c2c1CCCC2 | inconclusive: 50.1 µM [inhibitor, single point]
25 | CN1c2ccccc2C(C)(C)C12C=Cc1cc(O)ccc1O2 (configuration not stated) | inconclusive: 44.7 µM [inhibitor, partial curve, poor fit]
26 | Cc1cccc(/C=N/n2c(-c3ccco3)n[nH]c2=S)c1 | inconclusive: 2.51 µM [inhibitor, full curve, poor fit]
27 | Cc1cccnc1NC(=S)NCc1ccco1 | inconclusive: 14.1 µM [inhibitor, partial curve]
28 | S=c1[nH]nc(-c2ccccn2)n1/N=C/c1ccccc1 | inconclusive: 11.2 µM [inhibitor, partial curve, poor fit]
29 | COc1ccc(NCc2nnc(SCC(=O)c3ccc(OC)cc3)n2C)cc1 | inconclusive: 39.8 µM [inhibitor, partial curve, poor fit]
30 | O=C(c1ccccc1)N1N=C(c2ccccc2)CC1c1ccccc1O (configuration not stated) | inconclusive: 31.6 µM [inhibitor, partial curve, poor fit]
31 | NC(N)=N/N=C/c1ccc(OCc2ccc(Cl)cc2)cc1 | inconclusive: 31.6 µM [inhibitor, single point]
32 | Cn1cccc1/C=N/n1c(-c2ccc(C(C)(C)C)cc2)n[nH]c1=S | inconclusive: 14.1 µM [inhibitor, partial curve, poor fit]
33 | Oc1ccc(/C=N/n2c(COc3ccccc3)n[nH]c2=S)c(O)c1 | inconclusive: 2.24 µM [inhibitor, full curve]
34 | O=S(=O)(NCCCN1CCOCC1)c1ccc(Cl)s1 | inconclusive: 50.1 µM [inhibitor, single point]
35 | COc1cc2cc(CCCOC(=O)c3ccco3)oc(=O)c2cc1OC | inactive
36 | Cc1c(Cl)cccc1Nc1n[nH]c(=S)s1 | inconclusive: 14.1 µM [inhibitor, partial curve, poor fit]
37 | CN(C)c1ccc(N/C=C/C(=O)c2ccc(F)cc2)cc1 | inconclusive: 35.5 µM [inhibitor, partial curve, poor fit]
38 | NS(=O)(=O)c1cccc(NC(=O)COC(=O)CCC(=O)c2cccs2)c1 | inactive
39 | Fc1cccc(Cl)c1CNc1ccc(N2CCCC2)cc1 | inconclusive: 1 µM [inhibitor, full curve]
40 | COc1ccc(/C=C2/C(=O)ON=C2C)cc1Br | inconclusive: 28.2 µM [inhibitor, partial curve, poor fit]
41 | Cc1cc(C(F)(F)F)nn1Cc1n[nH]c(=S)n1-c1cccc(Cl)c1 | inconclusive: 25.1 µM [inhibitor, partial curve, poor fit]
42 | N/C(=N\N=C/c1ccc(-c2ccc(O)c(C(=O)O)c2)o1)N[N+](=O)[O-] | inconclusive: 28.2 µM [inhibitor, partial curve]
